Target: T1, hIL-13Rα2.Fc fusion polypeptide (soluble human IL-13Rα2 extracellular domain fused to hinge-CH2-CH3 of human … (human))
T1 construct: The dimer is described as the main active form; also called sIL-13Rα2.Fc; human s13Rα2.Fc
Test: co-expressed complex held on a Protein A column, MgCl2 wash, SEC-HPLC of dissociated IL-13
Experimental: The ability of hIL-13Rα2.Fc to dissociate from a coexpressed wild-type, R127D or R127P IL-13 ligand was next examined. Dissociation was assessed by determining the ability of MgCl2 to dissociate IL-13 from a IL-13-hIL-13Rα2.Fc complex. Conditioned media from cells coexpressing hIL-13Rα2.Fc fusion polypeptide with wild-type or mutant hIL-13 was purified on a Protein A column in the presence of increasing concentrations of MgCl₂. The amount of dissociated IL-13 at each MgCl₂ concentration was then measured.

B1: human IL-13 (wild-type) (ligand)
chain: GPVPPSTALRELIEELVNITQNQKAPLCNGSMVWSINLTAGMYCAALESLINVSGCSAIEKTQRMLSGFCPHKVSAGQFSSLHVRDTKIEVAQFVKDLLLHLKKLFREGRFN
notes: also called hIL-13; wild-type human IL-13
- binding result: binds

— patent US20050118683A1 (published 2005)
